IC50 is the fitted dose that halves viability relative to control wells, and lower means more sensitive; where the fit passes the top or lowest dose, that dose stands as a limit. AUC is the area under the same curve over the 256-fold range up to the top dose, as a fraction; values near 1 show little effect. Any top dose called inferred is not printed in the source and was worked back from the curve model. For part of these data: An entry number marks a drug with two screens in the source, which often give different values.
Key:
Experiment in all cases: Viability of human cancer cell lines after 72 h of drug (GDSC screen)
AZD6482 = compound: Cc1cc([C@@H](C)Nc2ccccc2C(=O)O)c2nc(N3CCOCC3)cc(=O)n2c1 [AZD6482]
Procedure: (§1)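 Human cancer cell lines in 384-well plates, medium with 10% serum, drug for 72 h over a 256-fold dose range (nine 2-fold or five 4-fold steps up to the top dose). Adherent lines were fixed and stained with the nucleic acid dye Syto60, suspension lines read with resazurin; signal relative to control wells, capped at 0 and 100%. One two-parameter sigmoid per drug and line, fitted in a mixed model over all curves with the slope shared within a line.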

MLN4924 = compound: NS(=O)(=O)OC[C@@H]1C[C@@H](n2ccc3c(N[C@H]4CCc5ccccc54)ncnc32)C[C@@H]1O [MLN4924]; conditions: top dose 1 µM; top dose inferred
Procedure: as §1

BMN-673 = compound: Cn1ncnc1[C@H]1c2n[nH]c(=O)c3cc(F)cc(c23)N[C@@H]1c1ccc(F)cc1 [BMN-673]; conditions: top dose 10 µM; top dose inferred
Procedure: as §1

[1] = top dose 5 µM, screen: GDSC drug entry 1066, top dose inferred
[2] = top dose 5.12 µM, screen: GDSC drug entry 156

Cell Line	AUC (AZD6482; [1])	IC50 (AZD6482; [1]) [nM]	AUC (AZD6482; [2])	IC50 (AZD6482; [2]) [nM]	AUC (MLN4924)	IC50 (MLN4924) [nM]	AUC (BMN-673)	IC50 (BMN-673) [nM]
C3A (liver, adherent)	0.979	> 5000	0.943	> 5120	0.943	> 1000	0.914	> 10000
C-33-A (cervix, adherent)	0.967	> 5000	0.976	> 5120	0.657	171	0.476	537
CA46 (Burkitt lymphoma, suspension)	0.985	> 5000	0.853	4460	0.885	> 1000	0.95	> 10000
CAKI-1 (kidney, adherent)	0.784	3380	0.712	1740	0.912	> 1000	0.817	9680
CAL-29 (bladder, adherent)	0.654	865	0.713	1350	0.683	213	0.736	3140
CAL-39 (cervix, adherent)	0.905	> 5000	0.744	1650	0.815	574	0.838	7130
CAL-51 (breast, adherent)	0.725	1230	0.962	> 5120	0.703	213	0.214	105
CAL-54 (kidney, adherent)	0.665	965	0.799	2870	0.905	> 1000	0.877	> 10000
CAL-72 (osteosarcoma, adherent)	0.958	> 5000	0.92	> 5120	0.837	846	0.891	> 10000
CAL-85-1 (breast, adherent)			0.744	2000	0.879	> 1000	0.864	> 10000
CAL-120 (breast, adherent)	0.881	> 5000	0.949	> 5120	0.798	640	0.813	7440
CCF-STTG1 (glioma, adherent)	0.956	> 5000	0.673	978	0.981	> 1000	0.773	3930
CCRF-CEM (lymphoblastic leukaemia, suspension)	0.903	4740	0.845	2850	0.781	347	0.621	1270
CESS (acute myeloid leukaemia, suspension)	0.983	> 5000	0.856	3210	0.695	201	0.677	1790
CFPAC-1 (pancreas, adherent)	0.917	> 5000	0.769	2220	0.865	> 1000	0.785	4950
CHL-1 (melanoma, adherent)	0.887	> 5000	0.838	3190	0.873	869	0.875	8900
CL-40 (large intestine, adherent)	0.936	> 5000			0.947	> 1000	0.805	> 10000
CMK (acute myeloid leukaemia, suspension)	0.958	> 5000	0.873	3670	0.81	431	0.67	1700

Cell Line	AUC (AZD6482; [1])	IC50 (AZD6482; [1]) [nM]	AUC (AZD6482; [2])	IC50 (AZD6482; [2]) [nM]	AUC (MLN4924)	IC50 (MLN4924) [nM]	AUC (BMN-673)	IC50 (BMN-673) [nM]
CML-T1 (chronic myeloid leukaemia, suspension)	0.982	> 5000			0.816	437	0.173	82.3
COLO-205 (large intestine, suspension)	0.961	> 5000	0.935	> 5120	0.933	> 1000	0.976	> 10000
COLO-320-HSR (large intestine, suspension)	0.972	> 5000	0.979	> 5120	0.985	> 1000	0.984	> 10000
COLO-678 (large intestine, semi-adherent)	0.98	> 5000	0.958	> 5120	0.943	> 1000	0.97	> 10000
COLO-679 (melanoma, adherent)	0.893	> 5000	0.88	> 5120	0.674	204	0.933	> 10000
COLO-680N (oesophagus, adherent)	0.955	> 5000	0.883	> 5120	0.964	> 1000	0.949	> 10000
COLO-792 (melanoma, adherent)			0.951	> 5120	0.894	> 1000	0.938	> 10000
COLO-824 (breast, adherent)	0.984	> 5000	0.948	> 5120	0.826	623	0.977	> 10000
COR-L32 (small cell lung carcinoma, suspension)					0.818	> 1000	0.959	> 10000
COR-L88 (small cell lung carcinoma, adherent)	0.978	> 5000	0.982	> 5120	0.945	> 1000	0.985	> 10000
MOLT-16 (T-cell lymphoblastic leukaemia, suspension)					0.727	235	0.263	157
SK-ES-1 (Ewing sarcoma, semi-adherent)	0.887	> 5000	0.909	> 5120	0.9	> 1000		
SNU-1040 (large intestine, adherent)					0.926	> 1000	0.979	> 10000
T47D (breast, adherent)					0.943	> 1000	0.974	> 10000
U031 (kidney, adherent)	0.417	184	0.951	> 5120	0.671	191		
U251 (glioma, adherent)	0.931	> 5000	0.861	4020	0.66	170		
U-266 (myeloma, semi-adherent)					0.98	> 1000	0.981	> 10000
